Results from the supplement of paper PMC10670038.
Where a name gives a salt, the structure may show the parent alone. ± gives the standard deviation of the averaged measurements. In all, about 2,000 compounds were measured (“relative cell viability vs DMSO, compound alone”: median about 1.1, lowest 2% from about 0.29 on). The list shows a part of the results.

These compounds were tested on TE10 (assay: relative cell viability vs DMSO, compound alone (fraction); TE10 is an esophageal squamous carcinoma line; higher = less cytotoxic). Conditions: 2 µM; 48 h.
Description: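 TE10 ESCC cells (1,000/well, 384-well plates) were treated with Selleck bioactive library compounds at 2 uM alone for 48 h. Viability was read by CellTiter-Glo and expressed relative to DMSO wells. Two technical replicates (A, B).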

Row | SMILES | relative cell viability
1 | O=c1cc(CN2CCOCC2)occ1OCCCCCSc1ccnc2cc(C(F)(F)F)ccc12 | 1.09 ± 0.02
2 | Cc1c(O)cccc1C(=O)N[C@@H](CSc1ccccc1)[C@H](O)CN1C[C@H]2CCCC[C@H]2C[C@H]1C(=O)NC(C)(C)C [Nelfinavir Mesylate] | 1.1208 ± 0.00096
3 | CN(C)CCC(c1ccccc1)c1ccccn1 (configuration not stated) [Pheniramine Maleate] | 1.12 ± 0.044
4 | Cc1cccc(Nc2nc(-c3ccncc3)cs2)c1 | 1.16 ± 0.06
5 | Nc1ccn([C@@H]2O[C@H](CO)[C@@H](O)[C@H]2O)c(=O)n1 [Cytidine] | 1.13 ± 0.02
6 | CC(C)NCCCn1c(Sc2cc3c(cc2I)OCO3)nc2c(N)ncnc21 | 0.623 ± 0.018
7 | Cc1ccc(O)c([C@H](CCN(C(C)C)C(C)C)c2ccccc2)c1 [Tolterodine tartrate] | 1.09 ± 0.019
8 | Cc1cc(C)cc(NC(=O)Cc2ccc(OC(C)(C)C(=O)O)cc2)c1 [Efaproxiral Sodium] | 1.11 ± 0.012
9 | CCCCOc1ccc(CC(=O)NO)cc1 [Bufexamac] | 1.0117 ± 0.00046
10 | C[C@H]1c2cccc(O)c2C(O)=C2C(=O)[C@]3(O)C(O)=C(C(N)=O)C(=O)[C@@H](N(C)C)[C@@H]3[C@@H](O)[C@@H]21 [Doxycycline Hyclate] | 1.12 ± 0.046
11 | C[C@H]1c2cccc(O)c2C(O)=C2C(=O)[C@]3(O)C(O)=C(C(N)=O)C(=O)[C@@H](N(C)C)[C@@H]3[C@@H](O)[C@@H]21 [Doxycycline HCl] | 1.26 ± 0.022
12 | CCCCC(C=O)NC(=O)C(CC(C)C)NC(=O)C(CC(C)C)NC(C)=O (configuration not stated) | 0.266 ± 0.011
13 | CCCCCCCCCCCCCCCCO [1-Hexadecanol] | 1.01 ± 0.14
14 | Nc1ncnc2c1c(-c1cnc3[nH]ccc3c1)nn2C1CCCC1 | 0.505 ± 0.045
15 | CCOC(=O)c1ccc(NC(=O)O[C@H]2[C@H](OC(=O)Nc3ccc4c(c3)OCO4)[C@@H](OC(=O)Nc3ccc4c(c3)OCO4)[C@@H](OC)O[C@@H]2CO)cc1 | 1.16 ± 0.047
16 | CCCCOc1cc(C(=O)NCCN(CC)CC)c2ccccc2n1 [Dibucaine HCl] | 1.17 ± 0.056
17 | CCNC(=O)C#Cc1ccc2c(C(=Nc3ccc(CN(C)C)cc3)c3ccccc3)c(O)[nH]c2c1 | 0.638 ± 0.033
18 | O=C1CCc2cc(OCCCCc3nnnn3C3CCCCC3)ccc2N1 [Cilostazol] | 1.162 ± 0.011
19 | CCS(=O)(=O)CCn1c([N+](=O)[O-])cnc1C [Tinidazole] | 1.25 ± 0.086
20 | N#C[C@@H]1C[C@@H]2C[C@@H]2N1C(=O)[C@@H](N)C12CC3CC(CC(O)(C3)C1)C2 [Saxagliptin] | 1.02 ± 0.083
21 | CCC1=C(C)CN(C(=O)NCCc2ccc(S(=O)(=O)NC(=O)N[C@H]3CC[C@H](C)CC3)cc2)C1=O [Glimepiride] | 1.21 ± 0.035
22 | COc1cc(Nc2nc3ccccc3nc2NS(=O)(=O)c2ccc(NC(=O)c3ccc(C)c(OC)c3)cc2)cc(OC)c1 | 1.15 ± 0.067
23 | C[C@@]12C[C@@]3(O)O[C@@H](O1)[C@]1(COC(=O)c4ccccc4)[C@H]3C[C@@]12O[C@@H]1O[C@H](CO)[C@@H](O)[C@H](O)[C@H]1O [Paeoniflorin] | 1.04 ± 0.029
24 | Cc1coc2c1C(=O)C(=O)c1c-2ccc2c(C)cccc12 [Tanshinone I] | 1.11 ± 0.051

Row | SMILES | relative cell viability
25 | CN(C)Cc1ccc(-c2nc3cccc4c3n2CCNC4=O)cc1 | 1.2 ± 0.079
26 | O=C(/C=C\n1cnc(-c2cc(C(F)(F)F)cc(C(F)(F)F)c2)n1)NNc1cnccn1 | 0.2768 ± 0.0027
27 | Cc1[nH]c(/C=C2\C(=O)Nc3ccc(S(=O)(=O)N(C)c4cccc(Cl)c4)cc32)c(C)c1C(=O)N1CCN(C)CC1 | 1.19 ± 0.05
28 | CC(C)C[C@H](NC(=O)[C@H]1O[C@@H]1C(=O)O)C(=O)NCCCCN=C(N)N | 1.05 ± 0.033
29 | COC(=O)[C@@H]1[C@H]2C[C@H]3c4[nH]c5ccccc5c4CCN3C[C@@H]2CC[C@@H]1O [Yohimbine HCl] | 1.17 ± 0.004
30 | CN(C)CCSSCCNC(=O)C1CCN(C(=O)CSc2ccc(Cl)cc2)CC1 | 1.11 ± 0.035
31 | CC(C)NCC(O)COc1cccc2ccccc12 (configuration not stated) [Propranolol HCl] | 1.07 ± 0.033
32 | Cc1nc(NC(=O)N2CCC[C@H]2C(N)=O)sc1-c1ccnc(C(C)(C)C(F)(F)F)c1 | 0.684 ± 0.0077
33 | O=S(=O)(O)CCS [Mesna] | 1.078 ± 0.004
34 | CCCCNC(=O)NS(=O)(=O)c1ccc(C)cc1 [Tolbutamide] | 1.06 ± 0.016
35 | C[C@@H]1O[C@@H](O[C@H]2[C@H](Oc3cc(O)c(C(=O)CCc4ccc(O)cc4)c(O)c3)O[C@H](CO)[C@@H](O)[C@@H]2O)[C@H](O)[C@H](O)[C@H]1O [Naringin Dihydrochalcone] | 1.01 ± 0.09
36 | CCCS(=O)(=O)Nc1ccc(F)c(C(=O)c2c[nH]c3ncc(-c4ccc(Cl)cc4)cc23)c1F [Vemurafenib (PLX4032, RG7204)] | 1.13 ± 0.048
37 | Cc1cccc(-c2[nH]c(CNc3ccccc3F)nc2-c2ccc3ncnn3c2)n1 | 1.158 ± 0.0069
38 | CCOC(=O)OC(C)OC1=C(C(=O)Nc2ccccn2)N(C)S(=O)(=O)c2ccccc21 (configuration not stated) [Ampiroxicam] | 0.984 ± 0.067
39 | O=C(Nc1c(Cl)cncc1Cl)c1ccc(OC(F)F)c(OCC2CC2)c1 [Roflumilast] | 0.989 ± 0.013
40 | CCC(=O)O[C@]1(C(=O)CCl)[C@@H](C)C[C@H]2[C@@H]3C[C@H](F)C4=CC(=O)C=C[C@]4(C)[C@@]3(F)[C@@H](O)C[C@@]21C [Halobetasol Propionate] | 0.928 ± 0.03
41 | CC(=O)N[C@H]1[C@H]([C@H](O)[C@H](O)CO)OC(C(=O)O)=C[C@@H]1NC(=N)N [Zanamivir] | 1.13 ± 0.049
42 | CCN1CC(CCN2CCOCC2)C(c2ccccc2)(c2ccccc2)C1=O (configuration not stated) [Doxapram HCl] | 1.15 ± 0.015
43 | OCc1cc(C(O)CNCCCCCCOCCCCc2ccccc2)ccc1O (configuration not stated) [Salmeterol Xinafoate] | 1.16 ± 0.075
44 | CC(=O)OCC(=O)[C@@]12N=C(C)O[C@@H]1C[C@H]1[C@@H]3CCC4=CC(=O)C=C[C@]4(C)[C@H]3[C@@H](O)C[C@@]12C [Deflazacort] | 0.923 ± 0.027
45 | C[C@@H](CN1CC(=O)NC(=O)C1)N1CC(=O)NC(=O)C1 [Dexrazoxane HCl (ICRF-187, ADR-529)] | 1.12 ± 0.014
46 | CNCCC(Oc1ccc(C(F)(F)F)cc1)c1ccccc1 (configuration not stated) [Fluoxetine HCl] | 1.21 ± 0.04
47 | Cc1nc2n(c(=O)c1CCN1CCC(c3noc4cc(F)ccc34)CC1)CCCC2 [Risperidone] | 1.12 ± 0.036
